{"source": "the supplement of paper PMC8728848", "assay_in_all_cases": "glycan array binding signal (z-score within array); higher = stronger binding", "details_in_all_cases": "glycan notation: IUPAC condensed, linker removed; mutation: D109R", "key": {"[1]": {"target": "Neu5Ac(a2-6)GlcNAc(b1-4)GlcNAc", "outline": "(§1)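 The Consortium for Functional Glycomics database supplied 3228 glycan arrays, of which those lacking an available protein sequence were dropped. The binding signal, a within-array Z-score, was averaged across arrays of the same protein sequence and across linkers. Negative scores can be read as non-binding.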"}, "[2]": {"target": "Neu5Ac(a2-6)GlcNAc(b1-4)GlcNAc(b1-4)GlcNAc", "outline": "as §1"}, "Neu5Ac(a2-8)Neu5Ac": {"target": "Neu5Ac(a2-8)Neu5Ac", "outline": "as §1"}, "[3]": {"target": "Neu5Ac(a2-8)Neu5Ac(a2-3)Gal(b1-3)GalNAc(b1-4)[Neu5Ac(a2-3)]Gal(b1-4)Glc", "outline": "as §1"}, "[4]": {"target": "Neu5Ac(a2-8)Neu5Ac(a2-3)Gal(b1-3)GalNAc(b1-4)[Neu5Ac(a2-8)Neu5Ac(a2-3)]Gal(b1-4)Glc", "outline": "as §1"}, "[5]": {"target": "Neu5Ac(a2-8)Neu5Ac(a2-3)Gal(b1-4)Glc", "outline": "as §1"}, "[6]": {"target": "Neu5Ac(a2-8)Neu5Ac(a2-3)Gal(b1-4)GlcNAc", "outline": "as §1"}, "[7]": {"target": "Neu5Ac(a2-8)Neu5Ac(a2-3)[Gal(b1-3)GalNAc(b1-4)]Gal(b1-4)Glc", "outline": "as §1"}, "[8]": {"target": "Neu5Ac(a2-8)Neu5Ac(a2-3)[GalNAc(b1-4)]Gal(b1-4)Glc", "outline": "as §1"}, "[9]": {"target": "Neu5Ac(a2-8)Neu5Ac(a2-8)Neu5Ac", "outline": "as §1"}, "[10]": {"target": "Neu5Ac(a2-8)Neu5Ac(a2-8)Neu5Ac(a2-3)Gal(b1-4)Glc", "outline": "as §1"}, "[11]": {"target": "Neu5Ac(a2-8)Neu5Ac(a2-8)Neu5Ac(a2-3)[Gal(b1-3)GalNAc(b1-4)]Gal(b1-4)Glc", "outline": "as §1"}, "[12]": {"target": "Neu5Ac(a2-8)Neu5Ac(a2-8)Neu5Ac(a2-3)[GalNAc(b1-4)]Gal(b1-4)Glc", "outline": "as §1"}, "[13]": {"target": "Neu5Ac(a2-8)Neu5Ac(a2-8)Neu5Ac(a2-8)Neu5Ac(a2-3)[GalNAc(b1-4)]Gal(b1-4)Glc", "outline": "as §1"}, "[14]": {"target": "Neu5Ac(a2-8)Neu5Gc(a2-3)Gal(b1-4)GlcNAc", "outline": "as §1"}, "[15]": {"target": "Neu5Ac(b2-6)Gal(b1-4)GlcNAc", "outline": "as §1"}, "Neu5Ac(b2-6)GalNAc": {"target": "Neu5Ac(b2-6)GalNAc", "outline": "as §1"}, "[16]": {"target": "Neu5Ac9Ac(a2-3)Gal(b1-3)GlcNAc", "outline": "as §1"}, "[17]": {"target": "Neu5Ac9Ac(a2-3)Gal(b1-4)GlcNAc", "outline": "as §1"}, "[18]": {"target": "Neu5Ac9Ac(a2-6)Gal(b1-4)GlcNAc", "outline": "as §1"}, "[19]": {"target": "Neu5Gc(a2-3)Gal(b1-3)GlcNAc", "outline": "as §1"}, "[20]": {"target": "Neu5Gc(a2-3)Gal(b1-3)[Fuc(a1-4)]GlcNAc", "outline": "as §1"}, "Neu5Gc(a2-3)Gal(b1-4)Glc": {"target": "Neu5Gc(a2-3)Gal(b1-4)Glc", "outline": "as §1"}, "[21]": {"target": "Neu5Gc(a2-3)Gal(b1-4)GlcNAc", "outline": "as §1"}, "[22]": {"target": "Neu5Gc(a2-3)Gal(b1-4)GlcNAc(b1-3)Gal(b1-4)GlcNAc(b1-2)Man(a1-3)[Neu5Gc(a2-3)Gal(b1-4)GlcNAc(b1-3)Gal(b1-4)GlcNAc(b1-2)Man(a1-6)]Man(b1-4)GlcNAc(b1-4)GlcNAc", "outline": "as §1"}, "[23]": {"target": "Neu5Gc(a2-3)Gal(b1-4)[Fuc(a1-3)]GlcNAc", "outline": "as §1"}, "[24]": {"target": "Neu5Gc(a2-6)Gal(b1-4)GlcNAc", "outline": "as §1"}, "Neu5Gc(a2-6)GalNAc": {"target": "Neu5Gc(a2-6)GalNAc", "outline": "as §1"}, "[25]": {"target": "Neu5Gc(a2-8)Neu5Ac(a2-3)Gal(b1-4)GlcNAc", "outline": "as §1"}, "[26]": {"target": "Neu5Gc(a2-8)Neu5Gc(a2-3)Gal(b1-4)GlcNAc", "outline": "as §1"}, "[27]": {"target": "Neu5Gc(a2-8)Neu5Gc(a2-3)Gal(b1-4)GlcNAc(b1-3)Gal(b1-4)GlcNAc", "outline": "as §1"}, "[28]": {"target": "Neu5Gc(a2-8)Neu5Gc(a2-6)Gal(b1-4)GlcNAc", "outline": "as §1"}, "[29]": {"target": "Neu5Gc(b2-6)Gal(b1-4)GlcNAc", "outline": "as §1"}}, "note": "This is one part of the list."}
{"binder": "MpL2 (Macrolepiota procera) (protein) MSTQVSSGQTYKITNVKAGTVIDLSGEDNKSIIGYPYHSGKNQQWTFNWTGKAWTLRSASSGSYLGIEGTPADGTRLVAVNDPFEWHIWRDEANENAFRIFVPFTNYNLRLSGYGDTTPGTPVQLWWTWEGLHQTWTIDRP", "values": [{"measurement": "glycan array binding signal (z-score)", "setting": "[1]", "value": -0.275}, {"measurement": "glycan array binding signal (z-score)", "setting": "[2]", "value": -0.329}, {"measurement": "glycan array binding signal (z-score)", "setting": "Neu5Ac(a2-8)Neu5Ac", "value": -0.256}, {"measurement": "glycan array binding signal (z-score)", "setting": "[3]", "value": -0.26}, {"measurement": "glycan array binding signal (z-score)", "setting": "[4]", "value": -0.131}, {"measurement": "glycan array binding signal (z-score)", "setting": "[5]", "value": -0.256}, {"measurement": "glycan array binding signal (z-score)", "setting": "[6]", "value": -0.318}, {"measurement": "glycan array binding signal (z-score)", "setting": "[7]", "value": -0.26}, {"measurement": "glycan array binding signal (z-score)", "setting": "[8]", "value": -0.268}, {"measurement": "glycan array binding signal (z-score)", "setting": "[9]", "value": -0.264}, {"measurement": "glycan array binding signal (z-score)", "setting": "[10]", "value": -0.272}, {"measurement": "glycan array binding signal (z-score)", "setting": "[11]", "value": -0.19}, {"measurement": "glycan array binding signal (z-score)", "setting": "[12]", "value": -0.234}, {"measurement": "glycan array binding signal (z-score)", "setting": "[13]", "value": -0.261}, {"measurement": "glycan array binding signal (z-score)", "setting": "[14]", "value": -0.299}, {"measurement": "glycan array binding signal (z-score)", "setting": "[15]", "value": -0.254}, {"measurement": "glycan array binding signal (z-score)", "setting": "Neu5Ac(b2-6)GalNAc", "value": -0.265}, {"measurement": "glycan array binding signal (z-score)", "setting": "[16]", "value": -0.279}, {"measurement": "glycan array binding signal (z-score)", "setting": "[17]", "value": -0.202}, {"measurement": "glycan array binding signal (z-score)", "setting": "[18]", "value": -0.27}, {"measurement": "glycan array binding signal (z-score)", "setting": "[19]", "value": -0.259}, {"measurement": "glycan array binding signal (z-score)", "setting": "[20]", "value": -0.256}, {"measurement": "glycan array binding signal (z-score)", "setting": "Neu5Gc(a2-3)Gal(b1-4)Glc", "value": -0.353}, {"measurement": "glycan array binding signal (z-score)", "setting": "[21]", "value": -0.272}, {"measurement": "glycan array binding signal (z-score)", "setting": "[22]", "value": -0.268}, {"measurement": "glycan array binding signal (z-score)", "setting": "[23]", "value": -0.275}, {"measurement": "glycan array binding signal (z-score)", "setting": "[24]", "value": -0.25}, {"measurement": "glycan array binding signal (z-score)", "setting": "Neu5Gc(a2-6)GalNAc", "value": -0.288}, {"measurement": "glycan array binding signal (z-score)", "setting": "[25]", "value": -0.27}, {"measurement": "glycan array binding signal (z-score)", "setting": "[26]", "value": -0.26}, {"measurement": "glycan array binding signal (z-score)", "setting": "[27]", "value": -0.31}, {"measurement": "glycan array binding signal (z-score)", "setting": "[28]", "value": -0.27}, {"measurement": "glycan array binding signal (z-score)", "setting": "[29]", "value": -0.266}]}
